{"source": "the supplement of paper PMC8728848", "binders": {"B1": {"name": "Onconase (Rana pipiens), P22069 (protein)", "chain": "QDWLTFQKKHITNTRDVDCDNIMSTNLFHCKDKNTFIYSRPEPVKAICKGIIASKNVLTTSEFYLSDCNVTSRPCKYKLKKSTNKFCVTCENQAPVHFVGVGSC"}}, "test_in_all_cases": "glycan array binding signal (z-score within array); higher = stronger binding", "settings_in_all_cases": "glycan notation: IUPAC condensed, linker removed", "key": {"Fuc(a1-2)Gal": {"target": "Fuc(a1-2)Gal", "outline": "(§1)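 Columns mapping to the same glycan were averaged after glycan names were converted to IUPAC-condensed notation. The data come from 3228 arrays in the Consortium for Functional Glycomics database, limited to those with an available protein sequence. Binding is reported as a within-array Z-score averaged across arrays of one protein sequence and across linkers.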"}, "Fuc(a1-2)Gal(b1-3)GalNAc": {"target": "Fuc(a1-2)Gal(b1-3)GalNAc", "outline": "as §1"}, "[1]": {"target": "Fuc(a1-2)Gal(b1-3)GalNAc(b1-3)Gal", "outline": "as §1"}, "[2]": {"target": "Fuc(a1-2)Gal(b1-3)GalNAc(b1-3)Gal(a1-4)Gal(b1-4)Glc", "outline": "as §1"}, "[3]": {"target": "Fuc(a1-2)Gal(b1-3)GalNAc(b1-3)Gal(b1-4)Glc", "outline": "as §1"}, "[4]": {"target": "Fuc(a1-2)Gal(b1-3)GalNAc(b1-4)[Neu5Ac(a2-3)]Gal(b1-4)Glc", "outline": "as §1"}, "[5]": {"target": "Fuc(a1-2)Gal(b1-3)[Fuc(a1-4)]GlcNAc", "outline": "as §1"}, "Fuc(a1-2)Gal(b1-4)Glc": {"target": "Fuc(a1-2)Gal(b1-4)Glc", "outline": "as §1"}, "Fuc(a1-2)Gal(b1-4)GlcNAc": {"target": "Fuc(a1-2)Gal(b1-4)GlcNAc", "outline": "as §1"}, "[6]": {"target": "Fuc(a1-2)Gal(b1-4)GlcNAc(b1-3)Gal(b1-4)GlcNAc", "outline": "as §1"}, "[7]": {"target": "Fuc(a1-2)Gal(b1-4)GlcNAc(b1-3)Gal(b1-4)GlcNAc(b1-3)Gal(b1-4)GlcNAc", "outline": "as §1"}, "[8]": {"target": "Fuc(a1-2)Gal(b1-4)[Fuc(a1-3)]GalNAc(b1-3)Gal(b1-4)[Fuc(a1-3)]GlcNAc", "outline": "as §1"}, "[9]": {"target": "Fuc(a1-2)Gal(b1-4)[Fuc(a1-3)]GalNAc(b1-3)Gal(b1-4)[Fuc(a1-3)]GlcNAc(b1-3)Gal(b1-4)[Fuc(a1-3)]GalNAc", "outline": "as §1"}, "[10]": {"target": "Fuc(a1-2)Gal(b1-4)[Fuc(a1-3)]GlcNAc", "outline": "as §1"}, "Fuc(a1-2)GlcNAc": {"target": "Fuc(a1-2)GlcNAc", "outline": "as §1"}, "Fuc(a1-2)[Gal(a1-3)]Gal": {"target": "Fuc(a1-2)[Gal(a1-3)]Gal", "outline": "as §1"}, "[11]": {"target": "Fuc(a1-2)[Gal(a1-3)]Gal(b1-3)GlcNAc", "outline": "as §1"}, "[12]": {"target": "Fuc(a1-2)[Gal(a1-3)]Gal(b1-4)Glc", "outline": "as §1"}, "[13]": {"target": "Fuc(a1-2)[Gal(a1-3)]Gal(b1-4)GlcNAc", "outline": "as §1"}, "[14]": {"target": "Fuc(a1-2)[Gal(a1-3)]Gal(b1-4)[Fuc(a1-3)]GlcNAc", "outline": "as §1"}, "[15]": {"target": "Fuc(a1-2)[Gal(a1-4)]Gal(b1-4)GalNAc", "outline": "as §1"}, "[16]": {"target": "Fuc(a1-2)[GalNAc(a1-3)]Gal", "outline": "as §1"}, "[17]": {"target": "Fuc(a1-2)[GalNAc(a1-3)]Gal(b1-3)GlcNAc", "outline": "as §1"}, "[18]": {"target": "Fuc(a1-2)[GalNAc(a1-3)]Gal(b1-4)Glc", "outline": "as §1"}, "[19]": {"target": "Fuc(a1-2)[GalNAc(a1-3)]Gal(b1-4)GlcNAc", "outline": "as §1"}, "[20]": {"target": "Fuc(a1-2)[GalNAc(a1-3)]Gal(b1-4)[Fuc(a1-3)]GlcNAc", "outline": "as §1"}, "[21]": {"target": "Fuc(a1-2)[GalNAc(a1-4)]Gal(b1-4)GlcNAc", "outline": "as §1"}, "Fuc(a1-3)GlcNAc": {"target": "Fuc(a1-3)GlcNAc", "outline": "as §1"}, "[22]": {"target": "Fuc(a1-3)[Gal(b1-4)]GlcNAc", "outline": "as §1"}, "[23]": {"target": "Fuc(a1-3)[Gal(b1-4)]GlcNAc(b1-4)Gal(b1-4)[Fuc(a1-3)]GlcNAc", "outline": "as §1"}, "[24]": {"target": "Fuc(a1-3)[Gal(b1-4)]GlcNAc(b1-4)Gal(b1-4)[Fuc(a1-3)]GlcNAc(b1-4)Gal(b1-4)[Fuc(a1-3)]GlcNAc", "outline": "as §1"}, "[25]": {"target": "Fuc(a1-3)[Gal3S(b1-4)]GlcNAc", "outline": "as §1"}, "[26]": {"target": "Fuc(a1-3)[GalNAc(b1-4)]Gal(b1-4)GlcNAc", "outline": "as §1"}, "Fuc(a1-4)GlcNAc": {"target": "Fuc(a1-4)GlcNAc", "outline": "as §1"}, "Fuc(b1-3)GlcNAc": {"target": "Fuc(b1-3)GlcNAc", "outline": "as §1"}, "Gal(a1-2)Gal": {"target": "Gal(a1-2)Gal", "outline": "as §1"}, "Gal(a1-3)Gal": {"target": "Gal(a1-3)Gal", "outline": "as §1"}, "Gal(a1-3)Gal(b1-3)Glc": {"target": "Gal(a1-3)Gal(b1-3)Glc", "outline": "as §1"}, "Gal(a1-3)Gal(b1-3)GlcNAc": {"target": "Gal(a1-3)Gal(b1-3)GlcNAc", "outline": "as §1"}, "Gal(a1-3)Gal(b1-4)GlcNAc": {"target": "Gal(a1-3)Gal(b1-4)GlcNAc", "outline": "as §1"}, "[27]": {"target": "Gal(a1-3)Gal(b1-4)[Fuc(a1-3)]GalNAc", "outline": "as §1"}, "Gal(a1-3)GlcNAc": {"target": "Gal(a1-3)GlcNAc", "outline": "as §1"}, "[28]": {"target": "Gal(a1-3)[Gal(a1-4)]Gal(b1-4)GlcNAc", "outline": "as §1"}, "Gal(a1-4)Gal(b1-4)Gal": {"target": "Gal(a1-4)Gal(b1-4)Gal", "outline": "as §1"}, "Gal(a1-4)Gal(b1-4)GalNAc": {"target": "Gal(a1-4)Gal(b1-4)GalNAc", "outline": "as §1"}}, "note": "The list shows a part of the results.", "data": [{"binder": "B1", "values": [{"measurement": "glycan array binding signal (z-score)", "setting": "Fuc(a1-2)Gal", "result": 1.87}, {"measurement": "glycan array binding signal (z-score)", "setting": "Fuc(a1-2)Gal(b1-3)GalNAc", "result": 0.677}, {"measurement": "glycan array binding signal (z-score)", "setting": "[1]", "result": -1.12}, {"measurement": "glycan array binding signal (z-score)", "setting": "[2]", "result": 0.338}, {"measurement": "glycan array binding signal (z-score)", "setting": "[3]", "result": 1.01}, {"measurement": "glycan array binding signal (z-score)", "setting": "[4]", "result": -0.209}, {"measurement": "glycan array binding signal (z-score)", "setting": "[5]", "result": -1.23}, {"measurement": "glycan array binding signal (z-score)", "setting": "Fuc(a1-2)Gal(b1-4)Glc", "result": -1.2}, {"measurement": "glycan array binding signal (z-score)", "setting": "Fuc(a1-2)Gal(b1-4)GlcNAc", "result": 0.437}, {"measurement": "glycan array binding signal (z-score)", "setting": "[6]", "result": 1.25}, {"measurement": "glycan array binding signal (z-score)", "setting": "[7]", "result": 1.41}, {"measurement": "glycan array binding signal (z-score)", "setting": "[8]", "result": 0.784}, {"measurement": "glycan array binding signal (z-score)", "setting": "[9]", "result": 1.83}, {"measurement": "glycan array binding signal (z-score)", "setting": "[10]", "result": -0.273}, {"measurement": "glycan array binding signal (z-score)", "setting": "Fuc(a1-2)GlcNAc", "result": -0.959}, {"measurement": "glycan array binding signal (z-score)", "setting": "Fuc(a1-2)[Gal(a1-3)]Gal", "result": 0.782}, {"measurement": "glycan array binding signal (z-score)", "setting": "[11]", "result": 0.554}, {"measurement": "glycan array binding signal (z-score)", "setting": "[12]", "result": -0.953}, {"measurement": "glycan array binding signal (z-score)", "setting": "[13]", "result": -0.664}, {"measurement": "glycan array binding signal (z-score)", "setting": "[14]", "result": -0.031}, {"measurement": "glycan array binding signal (z-score)", "setting": "[15]", "result": -0.619}, {"measurement": "glycan array binding signal (z-score)", "setting": "[16]", "result": -0.105}, {"measurement": "glycan array binding signal (z-score)", "setting": "[17]", "result": 0.575}, {"measurement": "glycan array binding signal (z-score)", "setting": "[18]", "result": 0.784}, {"measurement": "glycan array binding signal (z-score)", "setting": "[19]", "result": -0.064}, {"measurement": "glycan array binding signal (z-score)", "setting": "[20]", "result": 0.41}, {"measurement": "glycan array binding signal (z-score)", "setting": "[21]", "result": -0.285}, {"measurement": "glycan array binding signal (z-score)", "setting": "Fuc(a1-3)GlcNAc", "result": -1.49}, {"measurement": "glycan array binding signal (z-score)", "setting": "[22]", "result": -0.812}, {"measurement": "glycan array binding signal (z-score)", "setting": "[23]", "result": 1.21}, {"measurement": "glycan array binding signal (z-score)", "setting": "[24]", "result": 0.991}, {"measurement": "glycan array binding signal (z-score)", "setting": "[25]", "result": 0.289}, {"measurement": "glycan array binding signal (z-score)", "setting": "[26]", "result": -0.655}, {"measurement": "glycan array binding signal (z-score)", "setting": "Fuc(a1-4)GlcNAc", "result": -1.6}, {"measurement": "glycan array binding signal (z-score)", "setting": "Fuc(b1-3)GlcNAc", "result": -0.753}, {"measurement": "glycan array binding signal (z-score)", "setting": "Gal(a1-2)Gal", "result": 3.22}, {"measurement": "glycan array binding signal (z-score)", "setting": "Gal(a1-3)Gal", "result": 0.767}, {"measurement": "glycan array binding signal (z-score)", "setting": "Gal(a1-3)Gal(b1-3)Glc", "result": -1.11}, {"measurement": "glycan array binding signal (z-score)", "setting": "Gal(a1-3)Gal(b1-3)GlcNAc", "result": -0.911}, {"measurement": "glycan array binding signal (z-score)", "setting": "Gal(a1-3)Gal(b1-4)GlcNAc", "result": -0.083}, {"measurement": "glycan array binding signal (z-score)", "setting": "[27]", "result": 0.431}, {"measurement": "glycan array binding signal (z-score)", "setting": "Gal(a1-3)GlcNAc", "result": 0.28}, {"measurement": "glycan array binding signal (z-score)", "setting": "[28]", "result": 1.3}, {"measurement": "glycan array binding signal (z-score)", "setting": "Gal(a1-4)Gal(b1-4)Gal", "result": 0.718}, {"measurement": "glycan array binding signal (z-score)", "setting": "Gal(a1-4)Gal(b1-4)GalNAc", "result": -0.669}]}]}
